This note sets out measurements from patent CN115707716A (DANSHENG MEDICAL TECH SHANGHAI CO LTD, dated 2023).

Assay [1] has as its target T1, TGF-β1蛋白 (UniProt P01137 fragment).
T1 construct: Bought protein
Briefly: ELISA, TGF-β1 coated at 100 ng/well, HRP goat anti-human Fab detection. Background: In an ELISA, binding on a coated surface is turned into a signal by an enzyme label.

Assay [2] concerns the target T1, TGF-β1蛋白. Description: cell-based or functional assay.
Assay [3] has as its target T2, VEGF-A165 (UniProt P15692-4 27-191).
T2 construct: Isoform VEGF-A165; also called VEGF蛋白
T2 sequence (looked up): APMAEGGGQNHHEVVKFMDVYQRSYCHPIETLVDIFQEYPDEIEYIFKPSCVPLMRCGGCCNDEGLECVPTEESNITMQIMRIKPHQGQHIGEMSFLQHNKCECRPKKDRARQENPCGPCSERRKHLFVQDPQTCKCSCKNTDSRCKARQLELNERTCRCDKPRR
Description: ELISA, VEGF coated at 100 ng/well, HRP goat anti-human Fab detection.

Assay [4] deals with T2, VEGF-A165. Briefly: cell-based or functional assay.

T1 sequence (P01137 279-390 limits assumed): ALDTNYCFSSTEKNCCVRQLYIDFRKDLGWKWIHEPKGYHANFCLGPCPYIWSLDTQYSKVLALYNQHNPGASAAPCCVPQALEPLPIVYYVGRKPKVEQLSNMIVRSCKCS

B1: 抗TGF-β/VEGF双功能融合蛋白TV05 (other)
heavy: QVQLVQSGAEVKKPGASVKVSCKASGYTFTSEWMNWVRQAPGQGLEWMGQIFPALGSTNYNEMYEGRVTMTTDTSTSTAYMELRSLRSDDTAVYYCARGIGNYALDAMDYWGQGTLVTVSSASTKGPSVFPLAPCSRSTSESTAALGCLVKDYFPEPVTVSWNSGALTSGVHTFPAVLQSSGLYSLSSVVTVPSSSLGTKTYTCNVDHKPSNTKVDKRV[letters of human IgG4 Fc with S228P (EU numbers) omitted]
light: DIQMTQSPSSLSASVGDRVTITCRASESVDFYGNSFMHWYQQKPGKAPKLLIYLASNLESGVPSRFSGSGSGTDFTLTISSLQPEDFATYYCQQNIEDPLTFGGGTKVEIKRTVAAPSVFIFPPSDEQLKSGTASVVCLLNNFYPREAKVQWKVDNALQSGNSQESVTEQDSKDSTYSLSSTLTLSKADYEKHKVYACEVTHQGLSSPVTKSFNRGECGGGGSGGGGSGGGGSGGGGSDTGRPFVEMYSEIPEIIHMTEGRELVIPCRVTSPNITVTLKKFPLDTLIPDGKRIIWDSRKGFIISNATYKEIGLLTCEATVNGHLYKTNYLTHRQTN
By EC50 is commonly meant the midpoint of the concentration-response curve. Low values mean greater potency, high ones weaker potency. Regarding B1, the results for the EC50 in the assay with TGF-β1蛋白 [1] and in the assay with VEGF-A165 [3] were 0.187 nM and 0.393 nM, respectively. For the same molecule, the “SMAD3报告基因抑制实验 IC50” value with TGF-β1蛋白 [2] is 0.341 nM.

B2: 抗TGF-β/VEGF双功能融合蛋白TV03 (other)
heavy: QVQLVQSGAEVKKPGASVKVSCKASGYTFTSEWMNWVRQAPGQGLEWMGQIFPALGSTNYNEMYEGRVTMTTDTSTSTAYMELRSLRSDDTAVYYCARGIGNYALDAMDYWGQGTLVTVSSASTKGPSVFPLAPCSRSTSESTAALGCLVKDYFPEPVTVSWNSGALTSGVHTFPAVLQSSGLYSLSSVVTVPSSSLGTKTYTCNVDHKPSNTKVDKRV[letters of human IgG4 Fc with S228P (EU numbers) omitted]AGGGGSGGGGSDTGRPFVEMYSEIPEIIHMTEGRELVIPCRVTSPNITVTLKKFPLDTLIPDGKRIIWDSRKGFIISNATYKEIGLLTCEATVNGHLYKTNYLTHRQTN
light: DIQMTQSPSSLSASVGDRVTITCRASESVDFYGNSFMHWYQQKPGKAPKLLIYLASNLESGVPSRFSGSGSGTDFTLTISSLQPEDFATYYCQQNIEDPLTFGGGTKVEIKRTVAAPSVFIFPPSDEQLKSGTASVVCLLNNFYPREAKVQWKVDNALQSGNSQESVTEQDSKDSTYSLSSTLTLSKADYEKHKVYACEVTHQGLSSPVTKSFNRGEC
notes: heavy chain 7 rather than 11 rests on list order
Consider B2, for which the EC50 in the assay with TGF-β1蛋白 [1] was 0.174 nM; with VEGF-A165 [3], 0.34 nM. Further, the “SMAD3报告基因抑制实验 IC50” value with TGF-β1蛋白 [2] came to 0.255 nM. The “阻断VEGF与受体KDR结合的细胞实验 IC50 (luminescence)” value with VEGF-A165 [4] was 0.096 nM.

B3: 抗TGF-β/VEGF双功能融合蛋白TV04 (other)
heavy: DTGRPFVEMYSEIPEIIHMTEGRELVIPCRVTSPNITVTLKKFPLDTLIPDGKRIIWDSRKGFIISNATYKEIGLLTCEATVNGHLYKTNYLTHRQTNTIGGGGSGGGGSGGGGSGGGGSQVQLVQSGAEVKKPGASVKVSCKASGYTFTSEWMNWVRQAPGQGLEWMGQIFPALGSTNYNEMYEGRVTMTTDTSTSTAYMELRSLRSDDTAVYYCARGIGNYALDAMDYWGQGTLVTVSSASTKGPSVFPLAPCSRSTSESTAALGCLVKDYFPEPVTVSWNSGALTSGVHTFPAVLQSSGLYSLSSVVTVPSSSLGTKTYTCNVDHKPSNTKVDKRV[letters of human IgG4 Fc with S228P (EU numbers) omitted]
light: DIQMTQSPSSLSASVGDRVTITCRASESVDFYGNSFMHWYQQKPGKAPKLLIYLASNLESGVPSRFSGSGSGTDFTLTISSLQPEDFATYYCQQNIEDPLTFGGGTKVEIKRTVAAPSVFIFPPSDEQLKSGTASVVCLLNNFYPREAKVQWKVDNALQSGNSQESVTEQDSKDSTYSLSSTLTLSKADYEKHKVYACEVTHQGLSSPVTKSFNRGEC
notes: heavy chain 11 rather than 7 rests on list order
With B3, the EC50 stood at 0.221 nM in the assay with TGF-β1蛋白 [1] and 0.381 nM with VEGF-A165 [3]. Besides, the “SMAD3报告基因抑制实验 IC50” value with TGF-β1蛋白 [2] was 0.221 nM. Moreover, the “阻断VEGF与受体KDR结合的细胞实验 IC50 (luminescence)” value with VEGF-A165 [4] was 0.092 nM.

B4: 抗TGF-β/VEGF双功能融合蛋白TV01 (other)
heavy: QVQLVQSGAEVKKPGASVKVSCKASGYIFITYWMNWVRQAPGQGLEWIGQIFPASGSTNYNEMFEGRATLTVDTSTSTAYMELSSLRSEDTAVYYCARGDGNYALDAMDYWGQGTLVTVSSASTKGPSVFPLAPCSRSTSESTAALGCLVKDYFPEPVTVSWNSGALTSGVHTFPAVLQSSGLYSLSSVVTVPSSSLGTKTYTCNVDHKPSNTKVDKRV[letters of human IgG4 Fc with S228P (EU numbers) omitted]AGGGGSGGGGSDTGRPFVEMYSEIPEIIHMTEGRELVIPCRVTSPNITVTLKKFPLDTLIPDGKRIIWDSRKGFIISNATYKEIGLLTCEATVNGHLYKTNYLTHRQTN
light: DIVLTQSPASLAVSPGQRATITCRASESVDSYGNSFMHWYQQKPGQPPKLLIYLASNLESGVPARFSGSGSGTDFTLTINPVEADDTANYYCQQNNEDPLTFGGGTKVELKRTVAAPSVFIFPPSDEQLKSGTASVVCLLNNFYPREAKVQWKVDNALQSGNSQESVTEQDSKDSTYSLSSTLTLSKADYEKHKVYACEVTHQGLSSPVTKSFNRGEC
notes: Humanised anti-TGF-β IgG 1D11-Hu with the VEGFR1 D2 domain joined to the C-terminus of the heavy chain; Light chain 3 follows by logic; heavy chain 1 rather than 5 rests on list order only
For the molecule B4, the results for the EC50 with TGF-β1蛋白 [1] and with VEGF-A165 [3] were 0.188 nM and 0.478 nM, respectively. Moreover, the “SMAD3报告基因抑制实验 IC50” value in the assay with TGF-β1蛋白 [2] turned out to be 0.388 nM.

B5: 抗TGF-β/VEGF双功能融合蛋白TV02 (other)
heavy: DTGRPFVEMYSEIPEIIHMTEGRELVIPCRVTSPNITVTLKKFPLDTLIPDGKRIIWDSRKGFIISNATYKEIGLLTCEATVNGHLYKTNYLTHRQTNTIGGGGSGGGGSGGGGSGGGGSQVQLVQSGAEVKKPGASVKVSCKASGYIFITYWMNWVRQAPGQGLEWIGQIFPASGSTNYNEMFEGRATLTVDTSTSTAYMELSSLRSEDTAVYYCARGDGNYALDAMDYWGQGTLVTVSSASTKGPSVFPLAPCSRSTSESTAALGCLVKDYFPEPVTVSWNSGALTSGVHTFPAVLQSSGLYSLSSVVTVPSSSLGTKTYTCNVDHKPSNTKVDKRV[letters of human IgG4 Fc with S228P (EU numbers) omitted]
light: DIVLTQSPASLAVSPGQRATITCRASESVDSYGNSFMHWYQQKPGQPPKLLIYLASNLESGVPARFSGSGSGTDFTLTINPVEADDTANYYCQQNNEDPLTFGGGTKVELKRTVAAPSVFIFPPSDEQLKSGTASVVCLLNNFYPREAKVQWKVDNALQSGNSQESVTEQDSKDSTYSLSSTLTLSKADYEKHKVYACEVTHQGLSSPVTKSFNRGEC
notes: Anti-TGF-β IgG 1D11-Hu with the VEGFR1 D2 domain joined to the N-terminus of the heavy chain
B5: the EC50 with TGF-β1蛋白 [1] stood at 0.213 nM; with VEGF-A165 [3], 0.394 nM. Also, the “SMAD3报告基因抑制实验 IC50” value with TGF-β1蛋白 [2] turned out to be 0.177 nM.
